Reference: the RNAGym collection of RNA variant scans (doi:10.7554/elife.90254)
Read counts are not given, so values of variants with three or more changes are uncertain.

B1: LINE1-mini (parent)
chain: GGCAGAGCUCAACACAGCGUGGCAAAGUGGCUGUGGCUAGACUGCC

Variants of: B1
Assay: self-cleavage, relative activity (ratio to wild type); higher = more cleavage; in vitro, sequencing; the parent is a self-cleaving ribozyme

Row | Variant | self-cleavage
1 | GGCAGAGCUCAACACAGCGCGGCAAAGGUGCUGCCGCUAGACUCCC | 0.01
2 | GGCAGAGCUCAACACAGCGCGUCAAAGAGGCUGUGGCUAGACUGCC | 0.33
3 | GGCAGAGCUCAACACAGCGCGGCAAAGUGAAUGUGGCUAGGCUGCC | 0.28
4 | GGCAGAGCUCAACACAGCGUAGCAAUGUGGCUGUGGCUAAACUGCC | 0.04
5 | GGCAGAGCUCAACACAGCGUAGCCAAGUGGCUGUAGCUUGACUGCC | 0.1
6 | GGCAGAGCUCAACACAGCGUAUCAAAGUGACUGUGGCUAGACUGCC | 0.35
7 | GGCAGAGCUCAACACAGCGCGGCAAAGUGGCUGUGUAUAGACUGCC | 0.02
8 | GGCAGAGCUCAACACAGCGUAUCAGAGUGGCUGAGGCUAGACUGCA | 0.04
9 | GGCAGAGCUCAACACAGCGUAGCAAACUGGCUGUUGUAAGACUGCC | 0.15
10 | GGCAGAGCUCAACACAGCGGGACAAAGUGGCGGUGGCUAGACUGCC | 0.09
11 | GGCAGAGCUCAACACAGCGGGGUAAAGUGGCUGUUGCUAGAGUGCC | 0.04
12 | GGCAGAGCUCAACACAGCGUCGCAACGUUGCUGUGGCUAGACUGCC | 0.13
13 | GGCAGAGCUCAACACAGCGUAACAAAGUGGCUGUGUUUAUACUGCC | 0.18
14 | GGCAGAGCUCAACACAGCGUAUCAAAGUGGCUGUGGCUCGACUGCC | 0.11
15 | GGCAGAGCUCAACACAGCGUAGCAAAGUGACUGUUGCUAGACUGCU | 0.19
16 | GGCAGAGCUCAACACAGCGGUGCAAAGUGGCUGGGGCUAGACAGCC | 0.02
17 | GGCAGAGCUCAACACAGCGUAGCAAAGUGGGUGGGGCUUGACUGCC | 0.02
18 | GGCAGAGCUCAACACAGCGUAGCAACGUGGCUCUGGCUAGACUGCC | 0.04
19 | GGCAGAGCUCAACACAGCGCGGCAAAGUGGCUGUGGCGCGUCUGCC | 0.04
20 | GGCAGAGCUCAACACAGCGGGGCAAAGUGGCUAUGGCUAGAGUGCC | 0.04
21 | GGCAGAGCUCAACACAGCGUAGCAAAGUGGCUGCGGCUAGACUGCU | 0.12
22 | GGCAGAGCUCAACACAGCGUAGCAAAGUGGCUGCGGCUAGACUGCA | 0.07
23 | GGCAGAGCUCAACACAGCGUAGCAAAGUGGCUGUGGCUAGCCUUCC | 0.17

Row | Variant | self-cleavage
24 | GGCAGAGCUCAACACAGCGUAGCAAAUUGGCUGUGGCUAGACUACC | 0.91
25 | GGCAGAGCUCAACACAGCGCGGCAAAGCGCCUGUGUAUAGACUGCC | 0.01
26 | GGCAGAGCUCAACACAGCGUAGCAAAGUGGCUGUGGCUAGAUUGCU | 0.67
27 | GGCAGAGCUCAACACAGCGUAGCAAACUGGCAGUGGCUAGACUGUC | 0.07
28 | GGCAGAGCUCAACACAGCGCGGCAAAGUUGCUGUGCCUAGACUGCC | 0.01
29 | GGCAGAGCUCAACACAGCGGGGCAAAGUGUCUGUGGCUAGAUUGCC | 0.51
30 | GGCAGAGCUCAACACAGCGUAGCAAUGUGGCUGUGGCUAGACGACC | 0.16
31 | GGCAGAGCUCAACACAGCGUAUCAUACUGUCUGUGGCUAGACUGCC | 1.08
32 | GGCAGAGCUCAACACAGCGUAGCACAGUGGAUUUGGCUAGACUGCC | 0.02
33 | GGCAGAGCUCAACACAGCGUCGCGAAGUGGCUGUGGCGAGACUGCC | 0.01
34 | GGCAGAGCUCAACACAGCGUAGCAAAGUGAUUGUGGCUAGAGUGCC | 0.05
35 | GGCAGAGCUCAACACAGCGGGAUAAAGUGGCUGUGACUAGACUGCC | 0.08
36 | GGCAGAGCUCAACACAGCGUAGUAAAGUGGCUGUGGCUAGACUGCA | 0.23
37 | GGCAGAGCUCAACACAGCGCGGCAAAGAGGGUGUGGAUAGAUUGCC | 0.06
38 | GGCAGAGCUCAACACAGCGUAGCAAAGUGGCCGUGACUAGACUGCU | 0.05
39 | GGCAGAGCUCAACACAGCGUAGCAAUGUGGCUGUGCCUAGACUGCC | 0.36
40 | GGCAGAGCUCAACACAGCGUACCAAAGUGGCUGUGGCUAGGCUGCC | 0.41
41 | GGCAGAGCUCAACACAGCGGGGCAAAGUGGCUUUGGCCAGACUACC | 0.03
42 | GGCAGAGCUCAACACAGCGGGGCAAAGAGGCUGUGCCUAGACUGCU | 0.05
43 | GGCAGAGCUCAACACAGCGGGGGAAAGUGGCUGUGGCUGGACUCCC | 0.02
44 | GGCAGAGCUCAACACAGCGGGGCAAAGUGGCUGUGGCUAUACUACC | 0.03
45 | GGCAGAGCUCAACACAGCGUAGCAAAGUGGAUAUGGCUAGACUGCC | 0.04
46 | GGCAGAGCUCAACACAGCGGGGCAAAUUGGCUGUGGCUAGACUGCG | 1.27

Row | Variant | self-cleavage
47 | GGCAGAGCUCAACACAGCGUAGCAAAGUAGCUGUGGCUAGCAUGCC | 0.06
48 | GGCAGAGCUCAACACAGCGUAUUAAAGUGGUUCUGGCUAGACUGCC | 0.07
49 | GGCAGAGCUCAACACAGCGGGGCAAACUGGUUGUGGCUAGACUGCC | 0.18
50 | GGCAGAGCUCAACACAGCGUAGCAAAGGGGAUGUGGCUAGACUGCC | 0.06
51 | GGCAGAGCUCAACACAGCGUAGCUAAGUGGAUGUGGCUAGACUGCA | 0.08
52 | GGCAGAGCUCAACACAGCGUAGCAAAGGGGAUGUGGCUAGACCGCC | 0.1
53 | GGCAGAGCUCAACACAGCGGGGCAAAGUGGAUGUGGCUAGCCUGCC | 0.03
54 | GGCAGAGCUCAACACAGCGCGGCAAAGUGGCUGUCGAUAGACUGCC | 0.15
55 | GGCAGAGCUCAACACAGCGGGGCACAGUGGCUGAGGAUAGACUGCC | 0.02
56 | GGCAGAGCUCAACACAGCGCGGCAAAGUUAAUGUGGCUAGACUGCC | 0.46
57 | GGCAGAGCUCAACACAGCGGGGCACAGUGGCUGUGGCUAGACCGCC | 0.04
58 | GGCAGAGCUCAACACAGCGGGCCAACGUGGCUGUGGCUAGACUGCC | 0.13
59 | GGCAGAGCUCAACACAGCGCGGCAAAGUGCCUGUGGACAGACUGCC | 0.02
60 | GGCAGAGCUCAACACAGCGGGGCAAAGUGGCUGUGGCAAGACCGCC | 0.01
61 | GGCAGAGCUCAACACAGCGUAGCAAAGUGGCUGUGGAUGGACUGCC | 0.02
62 | GGCAGAGCUCAACACAGCGGGGCAAAGUGGCUGUGGCUAAACUGUC | 0.11
63 | GGCAGAGCUCAACACAGCGUAGCAAAGUGGAUGUGGCUAGACUGCG | 0.09
64 | GGCAGAGCUCAACACAGCGCGGCAAAGUCGCUGUGGCUAGUCUGCC | 0.13
65 | GGCAGAGCUCAACACAGCGCGGCAAAGUGGCUGCGGCUAGACUUCC | 0.06
66 | GGCAGAGCUCAACACAGCGUAGAAAAGUUGCUGUGGCUAGACUGCC | 0.23
67 | GGCAGAGCUCAACACAGCGUAGCAAAGUGGGUGUGGCUACACUGCC | 0.02
68 | GGCAGAGCUCAACACAGCGGGACAAAGUGGCUGUGGCUAUACUGCC | 0.22
69 | GGCAGAGCUCAACACAGCGUAGCAAAGUGGCUGUGCCUAGAGUGCC | 0.1

Row | Variant | self-cleavage
70 | GGCAGAGCUCAACACAGCGUAGCAAAGUAGCUGUGGCUAGAUUGAA | 0.01
71 | GGCAGAGCUCAACACAGCGUAGCAAAGUGUCUGUAGCUCGACUGCA | 0.06
72 | GGCAGAGCUCAACACAGCGGGGCCAAGUGGCUGUGGUUAGACUGCC | 0.02
73 | GGCAGAGCUCAACACAGCGGGGCAAAGUCGCUGUGUCUAGACUGCC | 0.31
74 | GGCAGAGCUCAACACAGCGGUGCGAAGUGGCUGUGGCUAGACUGCC | 1.22
75 | GGCAGAGCUCAACACAGCGGGGCAAAGUGGCUGUGUUUUGACUUCC | 0.02
76 | GGCAGAGCUCAACACAGCGUCGUGAAGUGGCUGUGGCUAGAAUGCC | 0.16
77 | GGCAGAGCUCAACACAGCGGGGCAAAGUGGCUGUCGCUGGACUGCC | 0.07
78 | GGCAGAGCUCAACACAGCGCGGCAAAGUGGCAGUGGCUAGACUUCC | 0
79 | GGCAGAGCUCAACACAGCGUAGCAUAGUGGCUGUGGCGAGACUGCC | 0.05
80 | GGCAGAGCUCAACACAGCGUCGCAGAGUGGCUGUGGCUAGACUGAC | 0.21
81 | GGCAGAGCUCAACACAGCGUAGCAAAGUGGCUGUAGCUAGGCUGCC | 0.04
82 | GGCAGAGCUCAACACAGCGUAGCAAAUGGGCUGUGGCUAGUUUGCC | 0.21
83 | GGCAGAGCUCAACACAGCGGUGCAAAGUGGCUGUAGCUAGACUGCC | 0.46
84 | GGCAGAGCUCAACACAGCGCGGCAAAGCGGCUGUUACUAGACAGCC | 0.16
85 | GGCAGAGCUCAACACAGCGUAGCAAAGUGGCUGUUGGUAGAGUGGC | 0.04
86 | GGCAGAGCUCAACACAGCGUAGCAUAGUGGGUGUGGCUAGACUGCC | 0.11
87 | GGCAGAGCUCAACACAGCGUAGCAAAGUGGCUGUCGUUAGACUGCC | 0.06
88 | GGCAGAGCUCAACACAGCGCGCCAAAGUGGGUGUGGCUAGAAUGCC | 0.02
89 | GGCAGAGCUCAACACAGCGGGGCAGAGUGGCUGUGGCUAGACUUCC | 0.02
90 | GGCAGAGCUCAACACAGCGCGGCAAAGUGGCUGUGGCGAGACUGAC | 0
91 | GGCAGAGCUCAACACAGCGCGUCAAAGUGGCUGUGGCUAGACUGGC | 0.1
92 | GGCAGAGCUCAACACAGCGGGGCAAAGUAGCUGUGGCUAGACUGCG | 0.21

Row | Variant | self-cleavage
93 | GGCAGAGCUCAACACAGCGGGUCAAAGUGGCUGUGGCUAGACUGUC | 0.71
94 | GGCAGAGCUCAACACAGCGUAGCAAAGUGUCUGUGGCUAGACUGGC | 0.28
95 | GGCAGAGCUCAACACAGCGGGUCAAAGUGGCUGUGGAUAGACUGCC | 0.06
96 | GGCAGAGCUCAACACAGCGGGGCAAAGUGGCUGUGGCUAUACUGCG | 0.07
97 | GGCAGAGCUCAACACAGCGUAGUAAAGUGGAUAUGGCUAGAAUGCC | 0.07
98 | GGCAGAGCUCAACACAGCGUAGCAAAGUGGCUGUGGCUAGAUUGGC | 0.14
99 | GGCAGAGCUCAACACAGCGGGGCUAAGUGGCUAUGGCUAGAUUGCC | 0.06
100 | GGCAGAGCUCAACACAGCGGGGCAAAGUGGCUGUCGCUAGACUGCU | 0.02
101 | GGCAGAGCUCAACACAGCGUAGCAAAGUGGCUGUGGUUAAACUUCC | 0.06
102 | GGCAGAGCUCAACACAGCGCGGCAAAGUGGCUGUGGCUAGACUUCA | 0.08
103 | GGCAGAGCUCAACACAGCGUAGCAAAGUGGCUUUGGCUUGACUGCC | 0.28
104 | GGCAGAGCUCAACACAGCGUCGCAUAGUGGCUGUGGCUUGAAUUCC | 0.09
105 | GGCAGAGCUCAACACAGCGUAGCAAACUGGCUGUGGCUAAACUGAC | 0.02
106 | GGCAGAGCUCAACACAGCGCGGCAAAGUCUCUGUGGCUAGACUGCC | 1.25
107 | GGCAGAGCUCAACACAGCGGGGUAAAGUGGCCGUGGCUCGACUGCC | 0.12
108 | GGCAGAGCUCAACACAGCGUAGGAAAGUGGCUGUGGAUAGCCCGCC | 0.05
109 | GGCAGAGCUCAACACAGCGUCGCAAAGUGGCUGUGGCUCGAUUGCC | 0.02
110 | GGCAGAGCUCAACACAGCGUAGCAAAGUUGCCGUGGCUCGACUGCC | 0.09
111 | GGCAGAGCUCAACACAGCGCGGCAAACUGGCUGUGUCUAGACUGCG | 0.02
112 | GGCAGAGCUCAACACAGCGUAACAAAGUUGCUGUGGCUAGACUGCC | 0.6
